# Test results taken from PMC4336329 (PLoS ONE, 2015).
# In all, about 310,000 compounds went through this assay and about 14,000 (4.5%) showed an effect of 50% or more. The effect is printed as a negative number. This is one part of the list.
# Molecular target: human ether-à-go-go-related gene (hERG) potassium channel (human, UniProt Q12809)
# Assay: primary screen, population patch clamp on CHO cells stably expressing hERG
# 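Also: peak tail current of the secondary pulse compared with the same well before compound.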
# Chain of human ether-à-go-go-related gene (hERG) potassium channel (Q12809 whole entry, looked up): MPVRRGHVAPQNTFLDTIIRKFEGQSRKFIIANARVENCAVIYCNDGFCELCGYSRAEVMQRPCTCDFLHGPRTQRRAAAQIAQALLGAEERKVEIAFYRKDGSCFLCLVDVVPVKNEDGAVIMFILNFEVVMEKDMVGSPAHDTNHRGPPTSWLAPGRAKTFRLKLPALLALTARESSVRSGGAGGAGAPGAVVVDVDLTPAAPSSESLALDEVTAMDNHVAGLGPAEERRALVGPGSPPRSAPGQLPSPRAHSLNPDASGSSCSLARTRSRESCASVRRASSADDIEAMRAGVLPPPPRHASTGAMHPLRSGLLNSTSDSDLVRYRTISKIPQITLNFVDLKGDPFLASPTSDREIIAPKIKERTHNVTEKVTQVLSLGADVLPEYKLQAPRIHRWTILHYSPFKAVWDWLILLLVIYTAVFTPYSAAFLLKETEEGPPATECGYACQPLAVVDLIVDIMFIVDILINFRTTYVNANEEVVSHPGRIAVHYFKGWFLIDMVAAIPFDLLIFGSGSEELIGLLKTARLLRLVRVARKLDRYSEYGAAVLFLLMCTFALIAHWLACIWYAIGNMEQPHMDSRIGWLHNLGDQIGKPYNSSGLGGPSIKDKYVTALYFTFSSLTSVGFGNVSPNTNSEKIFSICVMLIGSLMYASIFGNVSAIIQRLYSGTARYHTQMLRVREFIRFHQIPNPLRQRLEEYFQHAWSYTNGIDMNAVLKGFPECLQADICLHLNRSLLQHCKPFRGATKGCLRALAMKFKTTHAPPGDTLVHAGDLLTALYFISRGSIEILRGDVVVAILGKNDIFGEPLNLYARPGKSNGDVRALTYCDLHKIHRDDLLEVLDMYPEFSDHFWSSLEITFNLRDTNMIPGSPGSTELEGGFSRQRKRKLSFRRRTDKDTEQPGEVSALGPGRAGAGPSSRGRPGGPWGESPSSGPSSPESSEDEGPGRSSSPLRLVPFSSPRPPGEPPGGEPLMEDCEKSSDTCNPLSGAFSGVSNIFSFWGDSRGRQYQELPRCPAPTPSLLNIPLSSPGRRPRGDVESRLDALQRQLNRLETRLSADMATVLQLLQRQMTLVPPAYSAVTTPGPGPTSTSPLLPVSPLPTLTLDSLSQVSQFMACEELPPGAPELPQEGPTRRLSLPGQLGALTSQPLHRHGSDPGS
row,SMILES,"hERG current change (%, negative = inhibition) at 10uM [%]"
1,Brc1ccc(-c2csc(-c3c[nH]c4ccccc34)n2)cc1,15.1
2,CC1(C)Cc2c(C#N)c(N3CCCC3)nc(-c3ccco3)c2CO1,5.08
3,COP(=O)(c1ccc(N(C)C)cc1)C(O)c1ccccc1 (centres unmarked),5.46
4,O=C(CCS(=O)(=O)Cc1ccc(Cl)cc1)NCCCN1CCOCC1,-8.33
5,CN1CCN(S(=O)(=O)c2ccc(NC(=S)NC(=O)C3CCCC3)cc2)CC1,9.58
6,O=S(=O)(Nc1ncccn1)c1ccc(NC(=S)Nc2ccccc2Cl)cc1,19.7
7,Cc1ccc(S(N)(=O)=O)c(C)c1N1CCCC1=O,22.9
8,O=C1OC(/C(=C\Nc2cc(Cl)ccc2O)[N+](=O)[O-])c2ccccc21 (centres unmarked),-0.699
9,CC(C)(C)[C@@H]1C=C(C(=O)Nc2ccccc2)O[C@H](OCc2ccc(CO)cc2)C1,11.9
10,CCOC(=O)c1cccc(NC(=O)CSc2nnc(COc3ccccc3C)o2)c1,4.78
11,O=C(O)/C=C/C(=O)NC1CCS(=O)(=O)C1 (centres unmarked),5.77
12,CC(NC(=S)Nc1ccccc1Cl)C(c1cccs1)N1CCCC1 (centres unmarked),-10.2
13,Br.O=C(CN1CCCCC1)c1ccccc1F,24
14,Cc1cc(C2C(C#N)=C(N)OC3=C2C(=O)CC(C)(C)C3)c(C)s1 (centres unmarked),-25.3
15,CSc1cccc(CN2CCC(CCC(=O)NC3CC3)CC2)c1,-62.6
16,Cc1ccc2cc(/C=C/C(=O)c3ccco3)c(Cl)nc2c1,15.2
17,Cc1cc(NS(=O)(=O)c2ccc(NC(=O)c3cccnc3)cc2)nc(C)n1,8.95
18,COc1ccc(CCNC(=O)CSc2nc(C)nc3c2oc2ccccc23)cc1OC,-9.54
19,O=C(COC(=O)c1ccc[nH]c1=O)c1ccc(Cl)s1,17.8

row,SMILES,"hERG current change (%, negative = inhibition) at 10uM [%]"
1,Cc1nnc(SCC(=O)N/N=C/c2cn(-c3ccccc3)nc2-c2ccccc2)n1-c1ccccc1,-2.56
2,COc1ccc(CC(=O)N2CCN(c3ccc(F)cc3)CC2)cc1,1.52
3,CCC(C)[C@H](NC(=O)Nc1ccc2c(c1)OCCO2)C(=O)OC (some centres unmarked),15.4
4,COc1ccc(OC)c(CN2CCN(Cc3cccc4ccccc34)CC2)c1.O=C(O)C(=O)O,-65.2
5,Cc1oc2nc(SCCCC(=O)NCCO)nc(N)c2c1C,2.88
6,Cc1c(Cl)cccc1NC(=O)CC(C(=O)O)C1CCCO1 (centres unmarked),-6.16
7,CC1CC(C)CN(CC(=O)N2CCc3[nH]c4ccccc4c3C2)C1 (centres unmarked),-30.3
8,COc1ccc(/C=C2\CN(Cc3ccccc3)C/C(=C\c3ccc(OC)cc3)C2=O)cc1,3.8
9,CC(=O)c1cc(CN2CCC(n3nccc3NC(=O)c3ccccc3C)CC2)cs1,-57.8
10,COC(=O)c1cn(-c2ccc(F)cc2)c(=O)c2ccccc12,-17.2
11,CCc1ccc(N(C(C)=O)c2nc(CCl)cs2)cc1,-15.1
12,COc1c(N2CCN(C(=S)NCc3ccccc3)C(C)C2)c(F)cc2c(=O)c(C(=O)O)cn(C3CC3)c12 (centres unmarked),-4.47
13,O=C(CCl)NC1(C(F)(F)F)C(=O)Nc2c1c(=O)[nH]c(=O)n2-c1ccccc1 (centres unmarked),8.08
14,COc1ccc(C(=O)OCCCOC(=O)c2ccc(OC)cc2OC)c(OC)c1,7.08
15,CC1CCCCC1NC(=O)C1CCC(CNS(=O)(=O)c2ccc(F)cc2)CC1 (centres unmarked),11.5
16,Cc1ccccc1OCCN1C(=O)C(=O)c2cccc(C)c21,10.8
17,O=C(NC1=NCCS1)c1cc(-c2cccs2)nc2ccccc12,-9.23
18,CC(=O)Nc1ccc(Nc2nc3c(S(=O)(=O)c4ccc(C)c(C)c4)nnn3c3ccccc23)cc1,23.3
19,CCN(CC)S(=O)(=O)c1cccc(C(=O)NNC(=O)c2ccc3[nH]c(=O)c(=O)[nH]c3c2)c1,16.1

row,SMILES,"hERG current change (%, negative = inhibition) at 10uM [%]"
1,CCCn1c(C(O)c2ccc3c(c2)OCO3)nc2ccccc21 (centres unmarked),-18
2,O=C(C1CCC(CNS(=O)(=O)c2cccc3cccnc23)CC1)N1CCCC1 (centres unmarked),8.93
3,COc1cc(/C=C2/C(=O)NN(c3cccc(C)c3)C2=O)cc([N+](=O)[O-])c1O,-19.1
4,COc1ccccc1OCC(=O)[O-].[Na+],4.6
5,Cc1nn(-c2cc(N3CCNCC3)ccc2[N+](=O)[O-])c(=O)c2ccccc12,-11.4
6,COc1ccc(NC(=O)Cn2c(=O)oc3cc(S(=O)(=O)N4CCCC4)ccc32)cc1,5.26
7,O=C(Nc1ccc2[nH]c3c(c2c1)CCCC3)c1ccco1,-3.4
8,COC(=O)c1ccccc1NC(=O)CSc1ccc(C)cc1,-0.828
9,CCCSc1nc2c(=O)[nH][nH]c(=O)c2n1Cc1ccccc1,1.87
10,CC(=O)Nc1ccccc1OCC(=O)NCCc1ccc(Cl)cc1Cl,-10
11,CC(C)CN(CC(C)C)C(=O)C12CCC(C)(C(=O)O1)C2(C)C (centres unmarked),5.16
12,COc1cc2c(cc1OC)CN(CCC(C)c1ccc(Cl)cc1)CC2.O=C(O)/C=C\C(=O)O (centres unmarked),-72.1
13,CC(NC(=O)Cc1ccc(-c2ccccc2)cc1)c1ccccc1 (centres unmarked),5.89
14,CC1=C[C@@H](C)[C@@H](c2ccccc2)OC1=O,3.06
15,Cc1nc2nc(C)c(NS(=O)(=O)c3ccc(Cl)cc3)c(=O)n2[nH]1,7.32
16,CCCCn1c(N)c(N(CC(C)C)C(=O)C2CCN(c3ncnc4sc(C)c(C)c34)CC2)c(=O)[nH]c1=O,-26.4
17,CCOc1ccc(OCC)c(NC(=O)CSc2nnc(C3CC3)n2CC)c1,-19
18,CC(=O)NC12CC3CC(C1)CC(C(=O)OCC(=O)Nc1c(F)cccc1F)(C3)C2,10.7
